{
  "source": "patent US20220401386A1",
  "about": "“USE OF NITRIC OXIDE SYNTHASE PATHWAY INHIBITOR IN PERPARATION OF MEDICINE” (ZHUJIANG HOSPITAL, SOUTHERN MEDICAL UNIVERSITY, priority 2019, published 2022)",
  "test_system": "mouse middle cerebral artery occlusion (MCAO) model",
  "assay": "Brain injury in cerebral ischemic stroke, TTC staining, cerebral injury volume",
  "type": "in vivo, mice",
  "data": [
    {"smiles": "Cc1ccnc(N)c1", "note": "[2-amino-4-methylpyridine (AMP), 2-amino-4-methylpyridine]", "values": [
      {"measurement": "degree of injury in the cerebral ischemic stroke", "setting": "MCAO mice, 0.01-1000 mg/kg gavage once 1 hour after stroke, compared to MCAO group without intervention", "value": "alleviates"}
    ]},
    {"smiles": "[H]/N=C(\\C)NCc1cccc(CN)c1", "note": "[1400W]", "values": [
      {"measurement": "degree of injury in the cerebral ischemic stroke", "setting": "mouse, in vivo", "value": "alleviates"}
    ]},
    {"smiles": "[H]/N=C(/C)NCCCC[C@H](N)C(=O)O", "note": "[L-NIL]", "values": [
      {"measurement": "degree of injury in the cerebral ischemic stroke", "setting": "mouse, in vivo", "value": "alleviates"}
    ]},
    {"smiles": "N=C(N)NN", "note": "[aminoguanidine (AG), aminoguanidine]", "values": [
      {"measurement": "degree of cerebral injury, time effect", "setting": "25 mg/kg gavage once at 1-12 h after stroke, detected 24 hours after stroke, FIGS. 12A-12B", "value": "significantly reduce"},
      {"measurement": "degree of injury of cerebral ischemic stroke", "setting": "AG before modeling (1 mg/ml drinking water, 5 days) or after modeling (100 mg/kg gavage once, 1 hour after stroke), vs MCAO group without intervention, FIG. 8", "value": "significantly alleviated"},
      {"measurement": "cerebral injury, dose effect", "setting": "different doses 25-200 mg/kg, gavage once at first hour after stroke, detected 24 hours after stroke, FIGS. 12A-12B", "value": "significantly reduce"}
    ]}
  ]
}
